Sequences with one replicate were seen in a single cluster, so their values are uncertain.
What follows are sequences tested on ATP (assay: switch fluorescence ratio, 500 uM ATP over buffer (Cy3 cluster intensity, sum of 5 cycles each) (fold (ratio)); higher = stronger signal-on switching upon ATP binding; sequences stand for … in TCGTCGGCAGCGTCAGATGTGTATAAGAGACAGTTTTTTTTTTTTTTTTTTTTTTTTT…TC). Conditions: aptamer strand: ATP DNA aptamer (quencher-CACCTGGGGGAGTATTGCGGAGGAAGG + anchor), 100 nM annealed; ATP concentration: 500 uM; one replicate.
Procedure, shortened: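 After annealing to 100 nM quencher-labelled ATP aptamer, Cy3-labelled switching-strand clusters on a modified Illumina MiSeq flow-cell were imaged in selection buffer. A second image followed after 15 min with 500 uM ATP at 22 °C, and five such buffer/ATP cycles were done, each separated by NaOH stripping and re-annealing. The fluorescence ratio, averaged per switch-domain sequence, is summed target-cycle over summed buffer-cycle Cy3 intensity per cluster, with clusters outside 100-1000 RFU excluded.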
For TGCTGACTAA, the switch fluorescence ratio was 1.03. In the case of TGCTGAGGTC, the switch fluorescence ratio is reported as 0.949. For TGCTGAGTCT, the switch fluorescence ratio was 0.986. TGCTGATAAA was tested, and the switch fluorescence ratio was 0.994. With TGCTGCTCCA the switch fluorescence ratio was 1.13. Sequence TGCTGGCTAG has a switch fluorescence ratio of 0.99. TGCTGGGTAA was tested, and the switch fluorescence ratio was 0.98. TGCTGTATTA showed a switch fluorescence ratio of 0.952. TGCTTAAATC gave a switch fluorescence ratio of 1.16. TGCTTCCGAT was tested, and the switch fluorescence ratio was 2.01. TGCTTCTAGA was tested, and the switch fluorescence ratio was 1.05. With TGCTTGCTAA the switch fluorescence ratio was 1.01. TGCTTGGCCC showed a switch fluorescence ratio of 1.04. TGCTTTTACA was tested, and the switch fluorescence ratio was 1.04. TGGAAATGCT showed a switch fluorescence ratio of 1.04. TGGAAATTA was tested, and the switch fluorescence ratio was 0.978. Sequence TGGAATGGTC has a switch fluorescence ratio of 0.929. In the case of TGGAATGTCG, the switch fluorescence ratio is reported as 0.953. TGGACAACTA was tested, and the switch fluorescence ratio was 1.08. Work on TGGACAAGCA yielded a switch fluorescence ratio of 1.01. TGGACGGGCT was tested, and the switch fluorescence ratio was 0.998. TGGACTGATG gave a switch fluorescence ratio of 0.943. In the case of TGGAGAATGT, the switch fluorescence ratio is reported as 0.984. TGGAGAATTC was tested, and the switch fluorescence ratio was 1.03. Work on TGGAGGTACC yielded a switch fluorescence ratio of 1.03. TGGAGGTGGA gave a switch fluorescence ratio of 1.03. TGGAGTAG was tested, and the switch fluorescence ratio was 0.997. TGGAGTTATC showed a switch fluorescence ratio of 0.999. TGGATATCTC gave a switch fluorescence ratio of 1.02. Work on TGGATATTAG yielded a switch fluorescence ratio of 1.03. TGGATCAACA showed a switch fluorescence ratio of 1. TGGATCCTTT showed a switch fluorescence ratio of 1. TGGATGCGTC was tested, and the switch fluorescence ratio was 0.997. Work on TGGATGTTC yielded a switch fluorescence ratio of 0.96. For TGGATTACG, the switch fluorescence ratio was 1.01. With TGGATTAGG the switch fluorescence ratio was 0.972. For TGGATTAGT, the switch fluorescence ratio was 1.02. TGGCAATATC showed a switch fluorescence ratio of 3.69. Work on TGGCAATGGA yielded a switch fluorescence ratio of 1.03. TGGCACTAGC gave a switch fluorescence ratio of 1.02. Sequence TGGCAGAATT has a switch fluorescence ratio of 0.993. With TGGCAGTATG the switch fluorescence ratio was 0.95. With TGGCATTGGA the switch fluorescence ratio was 0.968. TGGCCAGTAA showed a switch fluorescence ratio of 1. With TGGCCAGTGG the switch fluorescence ratio was 1.02. With TGGCCATTAG the switch fluorescence ratio was 0.998. TGGCCCGTA showed a switch fluorescence ratio of 1.06. In the case of TGGCCGAGCT, the switch fluorescence ratio is reported as 0.986. TGGCCGCGGG was tested, and the switch fluorescence ratio was 1.16. TGGCCGGATT gave a switch fluorescence ratio of 1.06. TGGCCGGCAA showed a switch fluorescence ratio of 1. For TGGCCGGTAC, the switch fluorescence ratio was 1.15. With TGGCCGTCTA the switch fluorescence ratio was 0.986. Sequence TGGCCGTTTG has a switch fluorescence ratio of 0.985. TGGCCTTTGC was tested, and the switch fluorescence ratio was 1.02. TGGCGATCTT showed a switch fluorescence ratio of 1. Sequence TGGCGCACAC has a switch fluorescence ratio of 2.93. TGGCGCAGGA was tested, and the switch fluorescence ratio was 1.04. Work on TGGCGCTCGG yielded a switch fluorescence ratio of 1. Work on TGGCGGGAAT yielded a switch fluorescence ratio of 0.979. With TGGCGGGCCC the switch fluorescence ratio was 1.14. Sequence TGGCGGGCTC has a switch fluorescence ratio of 1.01. Work on TGGCGGGGTG yielded a switch fluorescence ratio of 1.05. In the case of TGGCGGGTT, the switch fluorescence ratio is reported as 1.03. TGGCGGTGGA gave a switch fluorescence ratio of 0.983. With TGGCGTACCC the switch fluorescence ratio was 0.994. In the case of TGGCGTTACC, the switch fluorescence ratio is reported as 1.03. TGGCTAACGT was tested, and the switch fluorescence ratio was 1.07. Sequence TGGCTAGGT has a switch fluorescence ratio of 0.985. TGGCTATATT gave a switch fluorescence ratio of 1.14. TGGCTCAACG was tested, and the switch fluorescence ratio was 0.998. TGGCTGAGTG was tested, and the switch fluorescence ratio was 0.99. TGGGAAAACA was tested, and the switch fluorescence ratio was 1.01. For TGGGAACTTT, the switch fluorescence ratio was 1.12. With TGGGAAGCGT the switch fluorescence ratio was 0.914. TGGGACCGGT gave a switch fluorescence ratio of 1.01. Sequence TGGGACCTAC has a switch fluorescence ratio of 1.23. Sequence TGGGACCTAG has a switch fluorescence ratio of 1.01. With TGGGACGT the switch fluorescence ratio was 1.01. With TGGGACTGGT the switch fluorescence ratio was 0.978. In the case of TGGGACTTGT, the switch fluorescence ratio is reported as 0.968. With TGGGAGCTCA the switch fluorescence ratio was 0.979. For TGGGAGGGAC, the switch fluorescence ratio was 0.978. Work on TGGGAGTG yielded a switch fluorescence ratio of 0.984. For TGGGAGTGAG, the switch fluorescence ratio was 0.98. For TGGGCAGGCG, the switch fluorescence ratio was 1.04. Work on TGGGCATTG yielded a switch fluorescence ratio of 0.991. TGGGCCCTGT gave a switch fluorescence ratio of 0.982. TGGGCCGGCG was tested, and the switch fluorescence ratio was 1. TGGGCCGGT was tested, and the switch fluorescence ratio was 1.04. Work on TGGGCCTAGA yielded a switch fluorescence ratio of 0.986. Sequence TGGGCCTCGG has a switch fluorescence ratio of 0.968. In the case of TGGGCGGGCA, the switch fluorescence ratio is reported as 1.04. Work on TGGGCTAACT yielded a switch fluorescence ratio of 1. Sequence TGGGCTCGGA has a switch fluorescence ratio of 0.982. For TGGGCTTCCA, the switch fluorescence ratio was 1.01. TGGGGACGA showed a switch fluorescence ratio of 0.986. With TGGGGACGCC the switch fluorescence ratio was 0.947. In the case of TGGGGAGTCT, the switch fluorescence ratio is reported as 1.05. With TGGGGCCATT the switch fluorescence ratio was 1.18. Sequence TGGGGGACCA has a switch fluorescence ratio of 1. For TGGGGGAT, the switch fluorescence ratio was 0.973. TGGGGGCA gave a switch fluorescence ratio of 1. With TGGGGGTCCG the switch fluorescence ratio was 0.996. Sequence TGGGGTAATT has a switch fluorescence ratio of 1. With TGGGTACGTG the switch fluorescence ratio was 1. Sequence TGGGTATGC has a switch fluorescence ratio of 1.02. TGGGTCAGAG gave a switch fluorescence ratio of 0.944. TGGGTCC was tested, and the switch fluorescence ratio was 1.03. With TGGGTCCAGA the switch fluorescence ratio was 0.966. Sequence TGGGTCGGTT has a switch fluorescence ratio of 0.978. Sequence TGGGTGAAA has a switch fluorescence ratio of 1.02. Sequence TGGGTGAAAC has a switch fluorescence ratio of 1.01. Work on TGGGTGCAAG yielded a switch fluorescence ratio of 0.969. TGGGTGCCCG showed a switch fluorescence ratio of 1.02. TGGGTGCTTT showed a switch fluorescence ratio of 1.03. With TGGGTGTGGC the switch fluorescence ratio was 1. Work on TGGGTTCG yielded a switch fluorescence ratio of 1.05. In the case of TGGTAAACCA, the switch fluorescence ratio is reported as 1.12. In the case of TGGTAACCCC, the switch fluorescence ratio is reported as 1.11. With TGGTACTGTA the switch fluorescence ratio was 1.08. TGGTAGCATG gave a switch fluorescence ratio of 0.984. Sequence TGGTAGGCC has a switch fluorescence ratio of 1.02. Work on TGGTAGTGAT yielded a switch fluorescence ratio of 1.01. In the case of TGGTAGTGT, the switch fluorescence ratio is reported as 0.976. With TGGTATACAT the switch fluorescence ratio was 1.01. TGGTATATTG gave a switch fluorescence ratio of 0.959. For TGGTATTGCC, the switch fluorescence ratio was 1.04. In the case of TGGTCAATTT, the switch fluorescence ratio is reported as 0.962. TGGTCACACG showed a switch fluorescence ratio of 0.979. TGGTCACAGG gave a switch fluorescence ratio of 1.03. Sequence TGGTCATACG has a switch fluorescence ratio of 1. Work on TGGTCATTAA yielded a switch fluorescence ratio of 0.975. TGGTCCCTCA showed a switch fluorescence ratio of 0.999. In the case of TGGTCGGGCG, the switch fluorescence ratio is reported as 1.08. With TGGTCGGTGC the switch fluorescence ratio was 0.998. Work on TGGTCGTGGA yielded a switch fluorescence ratio of 1.04. TGGTCTATAC showed a switch fluorescence ratio of 1.41. TGGTCTCAGG gave a switch fluorescence ratio of 1.08. TGGTCTCGAG was tested, and the switch fluorescence ratio was 0.964. Work on TGGTGCA yielded a switch fluorescence ratio of 1.03. Sequence TGGTGCAA has a switch fluorescence ratio of 1.13. For TGGTGCCGAT, the switch fluorescence ratio was 0.99. In the case of TGGTGCCTCG, the switch fluorescence ratio is reported as 1.02. In the case of TGGTGCGCTA, the switch fluorescence ratio is reported as 1.04. TGGTGGGACC was tested, and the switch fluorescence ratio was 0.997. Work on TGGTGTAATC yielded a switch fluorescence ratio of 1. TGGTGTCTGT was tested, and the switch fluorescence ratio was 0.987. In the case of TGGTGTTATC, the switch fluorescence ratio is reported as 1.02. TGGTTACTT showed a switch fluorescence ratio of 1.02. TGGTTAGAGA was tested, and the switch fluorescence ratio was 1.03. Sequence TGGTTAGTTA has a switch fluorescence ratio of 1.05. Work on TGGTTATCTG yielded a switch fluorescence ratio of 0.999. For TGGTTATTCC, the switch fluorescence ratio was 0.963. With TGGTTCAGGA the switch fluorescence ratio was 0.996. Sequence TGGTTCCGG has a switch fluorescence ratio of 0.979. Work on TGGTTGACGC yielded a switch fluorescence ratio of 1.08. In the case of TGGTTGCGGG, the switch fluorescence ratio is reported as 1.08. With TGGTTGGCGA the switch fluorescence ratio was 1.05. TGGTTTATCG gave a switch fluorescence ratio of 1. Sequence TGGTTTGTGA has a switch fluorescence ratio of 1.36. TGTAAAGGG showed a switch fluorescence ratio of 1.05. TGTAAGACTG gave a switch fluorescence ratio of 1.22. TGTAATGTCC was tested, and the switch fluorescence ratio was 1.06. Sequence TGTACCCAGG has a switch fluorescence ratio of 1.05. For TGTACCTGGG, the switch fluorescence ratio was 1.02. Work on TGTACGGAAA yielded a switch fluorescence ratio of 0.962. TGTACTCTCA was tested, and the switch fluorescence ratio was 1.01. TGTAGACATT gave a switch fluorescence ratio of 1.02. In the case of TGTAGCGTAA, the switch fluorescence ratio is reported as 1.13. With TGTAGGGAAT the switch fluorescence ratio was 1.02. Work on TGTATCTCAT yielded a switch fluorescence ratio of 1. In the case of TGTATGATG, the switch fluorescence ratio is reported as 1.01. Sequence TGTATGTCTT has a switch fluorescence ratio of 1.06. Work on TGTATGTTGT yielded a switch fluorescence ratio of 0.977. With TGTATTCGCG the switch fluorescence ratio was 0.992. For TGTCAACAGC, the switch fluorescence ratio was 1.12. Work on TGTCACGTTG yielded a switch fluorescence ratio of 1.07. TGTCACTTC was tested, and the switch fluorescence ratio was 1. Sequence TGTCACTTTT has a switch fluorescence ratio of 1.01. For TGTCAGATGC, the switch fluorescence ratio was 0.977. TGTCAGTCGG showed a switch fluorescence ratio of 1.05. TGTCCATAGG was tested, and the switch fluorescence ratio was 1. TGTCCATATT showed a switch fluorescence ratio of 0.984. TGTCCCGGTT showed a switch fluorescence ratio of 1. For TGTCCTAAAC, the switch fluorescence ratio was 1.02. With TGTCCTCAGG the switch fluorescence ratio was 1.25. Work on TGTCCTTTGC yielded a switch fluorescence ratio of 1.02. TGTCGAAATT showed a switch fluorescence ratio of 0.998. In the case of TGTCGAATAC, the switch fluorescence ratio is reported as 2.1. TGTCGAATCA was tested, and the switch fluorescence ratio was 0.959. Work on TGTCGCAAAG yielded a switch fluorescence ratio of 1.12. For TGTCGCGAA, the switch fluorescence ratio was 1. TGTCGGGCGG gave a switch fluorescence ratio of 1.06. Sequence TGTCGTGATT has a switch fluorescence ratio of 1.03. Work on TGTCGTTTAG yielded a switch fluorescence ratio of 1.02. Sequence TGTCTAAAGG has a switch fluorescence ratio of 1.01. With TGTCTAAGGT the switch fluorescence ratio was 1.03. Work on TGTCTAGC yielded a switch fluorescence ratio of 0.95. For TGTCTAGGGA, the switch fluorescence ratio was 1.1. Sequence TGTCTATAGC has a switch fluorescence ratio of 1.02.

— the supplement of paper PMC10126150
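Note: ATP exposure 15 min at 22 °C before imaging.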
